From PubChem BioAssay AID624296 (National Center for Advancing Translational Sciences (NCATS), 2012)
Among all 350,000 compounds or so, about 9,900 (2.8%) were called active. This list was built around the results that the source calls inconclusive (neither active nor inactive); the mix of calls is not that of the screen. Calls follow the shape of the dose curve; as a rule, active = well fitted activation curve with a large enough effect; inconclusive = small, poorly fitted or top-dose-only effect; inactive = no such curve, though single readings can be large or run the other way. No potency is given beside an inconclusive call; the fits are too rough.

Assay: A quantitative high throughput screen for small molecules that induce DNA re-replication in MCF 10a normal breast cells. Also: nearly all actives have a fitted effect of over 50% in size. As to activity, positive = re-replication: % of control where 0% means no effect.
Conditions: MCF 10A DNA re-replication, Hoechst nuclear intensity, 48 h; activity, positive = re-replication: at 46.1 µM (top of the series)
Potency is read from the fitted curve at half-maximal effect; tags tell the direction and shape of the fitted curve.

Row | Structure (SMILES) | Potency | activity, positive = re-replication
1 | CC1Oc2ccccc2C=C1/C=N/NC(=O)c1ccccc1O (stereo not given) | inconclusive [activator, partial curve, poor fit] | 
2 | Cn1cccc1-c1cc(C(=O)N/N=C/c2ccc(Cl)cc2)[nH]n1 | inconclusive [activator, single point] | 
3 | O=C(CSc1ncnc2c1oc1ccccc12)Nc1nc2ccccc2s1 | inconclusive [activator, single point] | 
4 | COc1ccc(C(=S)N2CCOCC2)cc1OC(=O)c1ccc([N+](=O)[O-])cc1[N+](=O)[O-] | inconclusive [activator, partial curve, poor fit] | 
5 | COCCCNc1nc(N)c([N+](=O)[O-])c(NC2CCCCC2)n1 | inconclusive [activator, partial curve, poor fit] | 
6 | COC(=O)c1nnn(-c2nonc2N)c1COc1ccc(C=O)cc1OC | inconclusive [activator, single point] | 
7 | Cc1nc(-c2cccc(S(=O)(=O)N3CCOCC3)c2)cs1 | inconclusive [activator, single point] | 
8 | CC(C)COc1ccc(C(=O)Nc2ccc(NC(=O)c3ccco3)c(Cl)c2)cc1 | inconclusive [activator, partial curve] | 
9 | C[C@@H](CN=[N+]=[N-])CN1CC[C@H](C(C)(C)C)CCC1=O |  | inactive: 2.09%
10 | COc1ccc(NC(=O)N2CCN(S(C)(=O)=O)CC2)cc1OC |  | inactive: 3.36%
11 | Cc1cccc(NC(=O)c2ccc([N+](=O)[O-])o2)c1 | active: 2.91 µM | 
12 | COc1ccc(-c2ccnc(-c3ccc(OCCCF)cc3)n2)cc1 | active: 14.6 µM | 
13 | Cc1ccnc(NC(=O)c2ccc(COc3c(F)c(F)cc(F)c3F)o2)c1 | inconclusive [activator, single point] | 
14 | CC(=O)c1ccc(NC(=O)[C@@]2(CC(=O)O)CC(/C=C/c3ccccc3)=NO2)cc1 | inconclusive [activator, partial curve] | 
15 | CC12CCC(=O)N1C(C(=O)Nc1nc(-c3ccccc3Cl)cs1)CS2 (stereo not given) | inconclusive [activator, single point] | 
16 | COc1cc(C(=O)NC23CC4CC(CC(C4)C2)C3)cc(OC)c1OC |  | inactive: 16.6%
17 | CO/N=C/c1ccc(Oc2ccc(C)cc2)c([N+](=O)[O-])c1 |  | inactive: -32.8%
18 | COc1ccc(N/C(C)=C2/C(=O)C(=O)N(CCO)C2c2ccc(Br)cc2)cc1 (stereo not given) | inconclusive [activator, partial curve, poor fit] | 
19 | COc1ccccc1NC(=O)Nc1nnc(Cc2ccc(F)cc2)s1 | inconclusive [activator, single point] | 
20 | COc1ccc(/C=N/NC(=O)c2ccc(Cl)cc2Cl)cc1COC(C)=O | inconclusive [activator, single point] | 
21 | Cc1ccc(C(C)(C)C)c(OCCOCCN2CCCC2)c1 | inconclusive [activator, single point] | 
22 | O=C1CC(Sc2nnnn2-c2ccccc2)C(=O)N1c1cccc(Cl)c1 (stereo not given) | inconclusive [activator, single point] | 
23 | Cc1nnc(SCc2ccccc2)n1CC1CCCO1 (stereo not given) | inconclusive [activator, partial curve, poor fit] | 

Row | Structure (SMILES) | Potency | activity, positive = re-replication
24 | CN(C)C(=S)N=c1ssc(=S)n1Cc1ccco1 | inconclusive [activator, full curve] | 
25 | CCOc1cc2c3c(c1)C1(OCCO1)C(=O)N3C(C)(C)CC2C (stereo not given) |  | inactive: 12.7%
26 | COC(=O)c1ccsc1NC(=O)CSc1nnnn1Cc1ccccc1 | inconclusive [activator, partial curve, poor fit] | 
27 | C/C(N)=C(/C#N)C(=O)CSc1nn(-c2ccc(Cl)cc2)c(=S)s1 | inconclusive [activator, single point] | 
28 | COc1ccccc1/C=C/C(=O)/C=C/c1ccccc1O | active: 10.3 µM | 
29 | Cc1cnc(C(=O)O)cn1 |  | inactive: -0.907%
30 | O=C(Nc1ccc(S(=O)(=O)N2CCOCC2)cc1)c1ccc([N+](=O)[O-])s1 | active: 13 µM | 
31 | Cn1c(=O)[nH]c(=O)c2c1nc(Br)n2CCCSc1nc2ccccc2o1 | active: 13 µM | 
32 | CSc1ccc(S(=O)(=O)N2CCC(C(=O)NCCCn3ccnc3)CC2)cc1 | inconclusive [activator, partial curve] | 
33 | CC(Nn1cnnc1)c1cc(Cl)ccc1O (stereo not given) |  | inactive: -3.4%
34 | CC1(C)COC(/C=C/c2cccc([N+](=O)[O-])c2)=N1 | active: 14.1 µM | 
35 | O=c1[nH]c(C2CCCN(S(=O)(=O)c3ccccc3F)C2)nc2c1nnn2Cc1ccccc1Cl (stereo not given) | inconclusive [activator, single point] | 
36 | CN(C(=O)CN1C(=O)NC(C)(c2cccc(Br)c2)C1=O)C1CCCCC1 (stereo not given) |  | inactive: 10.4%
37 | Nc1nc(Nc2ccccc2F)nc(NC2CCCCC2)c1[N+](=O)[O-] | inconclusive [activator, single point] | 
38 | O=C1C(Cl)=C(Nc2ccccc2)C(=O)c2ccccc21 | active: 4.11 µM | 
39 | COc1ccc(-c2sc(NC(C)=O)nc2-c2ccccc2)cc1 | inconclusive [activator, single point] | 
40 | NC(=O)C1(Nc2ccc(-c3ccc(Br)cc3)cc2)CCCC1 | inconclusive [activator, full curve, poor fit] | 
41 | Cc1cccc(C(=O)N2[C@@H](C(C)C)COc3cc(Br)ccc3S2(=O)=O)c1 | active: 8.2 µM | 
42 | CCOC(=O)N1CCN(C(=O)CSCC(=O)Nc2nc(-c3ccc(OC)cc3)cs2)CC1 | inconclusive [activator, single point] | 
43 | Cc1[nH]c2ccccc2c1/C=N/Nc1nc(Nc2ccccc2)nc(N2CCOCC2)n1 | inconclusive [activator, partial curve] | 
44 | N#C/C(=C\c1cccs1)c1nc2ccccc2[nH]1 | inconclusive [activator, single point] | 
45 | CN1CCC(Oc2ccccc2Sc2ccc(C(F)(F)F)cc2)CC1 | active: 8.2 µM | 
